According to the RNAGym collection of RNA variant scans (doi:10.1093/nar/gkz1192):
The source gives no read counts; variants with many changes may rest on few reads.

B1: CPEB3 Ribozyme (parent)
chain: UAACAGGGGGCCACAGCAGAAGCGUUCACGUCGCAGCCCCUGUCAGAUUCUGGUGAAUCUGCGAAUUCUGCUGUAUAUCUC

Variants of: B1
Assay: self-cleavage, relative activity (ratio to wild type); higher = more cleavage; in vitro, sequencing
Procedure, shortened: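 CPEB3 self-cleaving ribozyme mutant libraries were made by rounds of error-prone PCR, barcoded, and transcribed in vitro with T7 RNA polymerase for 5 hours at 37°C. Cleavage occurred during transcription and a 15 min DNase I step before EDTA stop. RNAs were reverse transcribed with template switching and Illumina-sequenced, with DNA sequencing mapping barcodes to variants. Relative activity is the variant's cleaved/total read fraction divided by wild type's (minimum 5 reads), averaged across three batches.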

Row | Variant | self-cleavage
1 | U25C G36A C62U U67G | 0.06
2 | U25C G36A U51A U69C U80C | 0.06
3 | U25C G36A U54C A56G U60A | 0.11
4 | U25C G36U A56U U69A U74C | 0.06
5 | U25C G36U U69A | 0.14
6 | U25C G42A A45G U54C | 0.19
7 | U25C G42A A57G U72C | 0.34
8 | U25C G42U A64G U69C U74A U80C | 0.1
9 | U25C G46A A47G C71G | 0.08
10 | U25C G52A U54C U60G U67A | 0.11
11 | U25C G52U U80C | 0.37
12 | U25C G53A U54A | 0.37
13 | U25C G55A A56G | 0.16
14 | U25C G55U A64G U72C | 0.57
15 | U25C G61A C62U | 0.07
16 | U25C G61C U66C U74A U80A | 0.18
17 | U25C G63U C68U U72A | 0.19
18 | U25C G70A U72C | 0.1
19 | U25C G70A U78C | 0.22
20 | U25C U26A A28C U51C | 0.36
21 | U25C U26A A35G A56G | 0.16
22 | U25C U26A A35G U80A | 0.5
23 | U25C U26A A35U A64U U67A U69C | 0.09
24 | U25C U26A A47U U48C U66A U69C | 0.25

Row | Variant | self-cleavage
25 | U25C U26A A56G | 0.07
26 | U25C U26A A64U U69C | 0.14
27 | U25C U26A U31C U80A | 0.42
28 | U25C U26A U41A U58C U74C | 0.19
29 | U25C U26A U58C U74C U80A | 0.06
30 | U25C U26C A35C A45U | 0.1
31 | U25C U26C A35G | 0.24
32 | U25C U26C A35G U67C C81U | 0.11
33 | U25C U26C A35U U72C | 0.07
34 | U25C U26C A45G A56G | 0.1
35 | U25C U26C A56G U60A U74A | 0.15
36 | U25C U26C A56G U78C | 0.07
37 | U25C U26C A56U U58C U72A U76C U80C | 0.08
38 | U25C U26C A64G U66A | 0.12
39 | U25C U26C A64U U67C | 0.28
40 | U25C U26C A65G U69C U76C | 0.1
41 | U25C U26C A77U | 0.4
42 | U25C U26C C39A | 0.07
43 | U25C U26C C62A U69C U72A U80C | 0.05
44 | U25C U26C C62U | 0.08
45 | U25C U26C G33U | 0.17
46 | U25C U26C G33U U66C | 0.07
47 | U25C U26C U31A U43G | 0.34
48 | U25C U26C U31C | 0.23

Row | Variant | self-cleavage
49 | U25C U26C U31C U41C | 0.07
50 | U25C U26C U41A U78C | 0.07
51 | U25C U26C U43C A64G | 0.36
52 | U25C U26C U43C G46C | 0.3
53 | U25C U26C U43C U80C | 0.5
54 | U25C U26C U48A A57G U69A U80C | 0.17
55 | U25C U26C U48C C62A U80A | 0.24
56 | U25C U26C U51A U72A | 0.38
57 | U25C U26C U58A U66C | 0.33
58 | U25C U26C U69A | 0.1
59 | U25C U26C U72C | 0.24
60 | U25C U26G A56G | 0.15
61 | U25C U26G A56U U69C A77U | 0.04
62 | U25C U26G C44U | 0.59
63 | U25C U26G U31A U41A U78C | 0.07
64 | U25C U31A A35U U43C G52A C79A | 0.07
65 | U25C U31A A45G | 0.29
66 | U25C U31A A45G U60A U69A U74A | 0.05
67 | U25C U31A A47G U69C | 0.06
68 | U25C U31A A57G U69C | 0.07
69 | U25C U31A C71A | 0.08
70 | U25C U31A U41A | 0.38
71 | U25C U31A U41C U51A U66C | 0.14
72 | U25C U31A U43C U54C | 0.3

Row | Variant | self-cleavage
73 | U25C U31A U43C U67A | 0.23
74 | U25C U31A U43C U67A A75G | 0.13
75 | U25C U31A U51G | 0.31
76 | U25C U31A U60C | 0.17
77 | U25C U31A U76C U80C | 0.1
78 | U25C U31A U80C | 0.3
79 | U25C U31C A56C A57C | 0.04
80 | U25C U31C A56G U69C | 0.15
81 | U25C U31C A56U A77U U80C | 0.12
82 | U25C U31C A57G U80A | 0.12
83 | U25C U31C A65G | 0.16
84 | U25C U31C C44A A47G | 0.38
85 | U25C U31C C44U U66C | 0.14
86 | U25C U31C G33A A57G U72C U76C | 0.04
87 | U25C U31C G61U U76C | 0.14
88 | U25C U31C U41A U48C A56U U80C | 0.06
89 | U25C U31C U41G C68U U78C | 0.23
90 | U25C U31C U49C | 0.35
91 | U25C U31C U60C | 0.36
92 | U25C U31C U69C U72C | 0.01
93 | U25C U31G A64U | 0.42
94 | U25C U31G U43C U54A A64G U66C | 0.11
95 | U25C U31G U60C | 0.14
96 | U25C U41A A57G | 0.2

Row | Variant | self-cleavage
97 | U25C U41A A64G U67A U69C U76C | 0.13
98 | U25C U41A G61C | 0.1
99 | U25C U41A U49C A56G | 0.29
100 | U25C U41A U51A | 0.36
101 | U25C U41A U51A U60C A65G U66C U72G | 0.1
102 | U25C U41A U51A U80A | 0.06
103 | U25C U41A U51C | 0.34
104 | U25C U41A U54A | 0.21
105 | U25C U41A U54C U60A | 0.12
106 | U25C U41A U58C | 0.24
107 | U25C U41A U58G U72C | 0.12
108 | U25C U41A U60A A64G | 0.09
109 | U25C U41C A45G A56U A64G | 0.33
110 | U25C U41C A57G A75U | 0.44
111 | U25C U41C C79U | 0.09
112 | U25C U41C G55A U80A | 0.1
113 | U25C U41C G63A | 0.15
114 | U25C U41C U54C | 0.28
115 | U25C U41C U54C U72A A75G | 0.07
116 | U25C U41C U58C U69A U72A | 0.26
117 | U25C U41C U60C | 0.38
118 | U25C U41C U67C | 0.06
119 | U25C U41C U69C U80A | 0.06
120 | U25C U41G U69C | 0.12

Row | Variant | self-cleavage
121 | U25C U43A A77U C81U | 0.25
122 | U25C U43A C62U | 0.33
123 | U25C U43A U48C U49C U67A | 0.1
124 | U25C U43A U49A U66C | 0.12
125 | U25C U43A U49C | 0.15
126 | U25C U43A U51G | 0.28
127 | U25C U43A U51G A56G | 0.06
128 | U25C U43A U67C U74C | 0.15
129 | U25C U43A U74A | 0.13
130 | U25C U43A U78C | 0.16
131 | U25C U43C A47G U51A U66C U72C | 0.14
132 | U25C U43C A56G G70A U78C | 0.17
133 | U25C U43C A56G U58C | 0.47
134 | U25C U43C A56G U58C U66C U78C | 0.13
135 | U25C U43C A64G U69A | 0.17
136 | U25C U43C G46C U72A | 0.36
137 | U25C U43C U49A | 0.26
138 | U25C U43C U54A U66C | 0.05
139 | U25C U43C U54C C59U G61A | 0.06
140 | U25C U43C U58G | 0.14
141 | U25C U43C U60C U80A | 0.32
142 | U25C U43C U69A | 0.3
143 | U25C U43C U69C | 0.05
144 | U25C U43C U80C | 0.62

Row | Variant | self-cleavage
145 | U25C U43G A56G C71A | 0.12
146 | U25C U43G C71U | 0.14
147 | U25C U43G G73C | 0.3
148 | U25C U43G U48A U69A | 0.06
149 | U25C U48A A56G | 0.2
150 | U25C U48A U49G U76C | 0.43
151 | U25C U48A U58G U60A | 0.37
152 | U25C U48A U69A | 0.12
153 | U25C U48C A56G U69C A75U | 0.1
154 | U25C U48C A57G U58C | 0.08
155 | U25C U48C A64G U78C | 0.15
156 | U25C U48C C59U | 0
157 | U25C U48C U49C A64G | 0.4
158 | U25C U48C U51C U60C | 0.44
159 | U25C U48C U51G U67C U78C | 0.12
160 | U25C U48C U58A | 0.17
161 | U25C U48C U58C U67C | 0.08
162 | U25C U48C U67C A77U | 0.07
163 | U25C U48C U78C | 0.24
164 | U25C U49A G52A U74C | 0.57
165 | U25C U49A U66C U69C A77G U80G | 0.14
166 | U25C U49A U76C | 0.16
167 | U25C U49C A56G C62A U67C U78C | 0.09
